# The list shows a part of the results.
# Tests used:
# Test in all cases: glycan array binding signal (z-score within array); higher = stronger binding
# Settings in all cases: glycan notation: IUPAC condensed, linker removed
# [1] = target: GlcNAc(b1-2)Man(a1-3)[GlcNAc(b1-2)Man(a1-6)]Man(b1-4)GlcNAc(b1-4)GlcNAc
# Procedure, shortened: (§1)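 Glycan array data were curated from 3228 arrays in the Consortium for Functional Glycomics database and kept only where the protein sequence was available. Glycan names were converted to IUPAC-condensed notation, and columns mapping to the same glycan were averaged. The binding signal is a within-array Z-score, averaged across arrays of the same protein sequence at different concentrations or buffers and across linkers. Negative Z-scores can be read as non-binding.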
# [2] = target: GlcNAc(b1-2)Man(a1-3)[GlcNAc(b1-2)Man(a1-6)]Man(b1-4)GlcNAc(b1-4)[Fuc(a1-6)]GlcNAc
# Procedure, shortened: as §1
# [3] = target: GlcNAc(b1-2)Man(a1-3)[GlcNAc(b1-4)][GlcNAc(b1-2)Man(a1-6)]Man(b1-4)GlcNAc(b1-4)GlcNAc
# Procedure, shortened: as §1
# [4] = target: GlcNAc(b1-2)Man(a1-3)[GlcNAc(b1-4)][GlcNAc(b1-2)Man(a1-6)]Man(b1-4)GlcNAc(b1-4)[Fuc(a1-6)]GlcNAc
# Procedure, shortened: as §1
# [5] = target: GlcNAc(b1-2)[GlcNAc(b1-4)]Man(a1-3)[GlcNAc(b1-2)Man(a1-6)]Man(b1-4)GlcNAc(b1-4)GlcNAc
# Procedure, shortened: as §1
# [6] = target: GlcNAc(b1-2)[GlcNAc(b1-4)]Man(a1-3)[GlcNAc(b1-4)][GlcNAc(b1-2)Man(a1-6)]Man(b1-4)GlcNAc(b1-4)GlcNAc
# Procedure, shortened: as §1
# [7] = target: GlcNAc(b1-2)[GlcNAc(b1-4)]Man(a1-3)[GlcNAc(b1-4)][GlcNAc(b1-2)[GlcNAc(b1-6)]Man(a1-6)]Man(b1-4)GlcNAc(b1-4)GlcNAc
# Procedure, shortened: as §1
# [8] = target: GlcNAc(b1-2)[GlcNAc(b1-4)]Man(a1-3)[GlcNAc(b1-4)][GlcNAc(b1-2)[GlcNAc(b1-6)]Man(a1-6)]Man(b1-4)GlcNAc(b1-4)[Fuc(a1-6)]GlcNAc
# Procedure, shortened: as §1
# [9] = target: GlcNAc(b1-2)[GlcNAc(b1-6)]Man(a1-6)[GlcNAc(b1-2)Man(a1-3)]Man(b1-4)GlcNAc(b1-4)GlcNAc
# Procedure, shortened: as §1
# [10] = target: GlcNAc(b1-2)[GlcNAc(b1-6)]Man(a1-6)[GlcNAc(b1-2)Man(a1-3)]Man(b1-4)GlcNAc(b1-4)[Fuc(a1-6)]GlcNAc
# Procedure, shortened: as §1
# [11] = target: GlcNAc(b1-2)[GlcNAc(b1-6)]Man(a1-6)[GlcNAc(b1-4)][GlcNAc(b1-2)Man(a1-3)]Man(b1-4)GlcNAc(b1-4)GlcNAc
# Procedure, shortened: as §1
# GlcNAc(b1-3)Fuc = target: GlcNAc(b1-3)Fuc
# Procedure, shortened: as §1
# GlcNAc(b1-3)Gal = target: GlcNAc(b1-3)Gal
# Procedure, shortened: as §1
# [12] = target: GlcNAc(b1-3)Gal(b1-3)GalNAc
# Procedure, shortened: as §1
# GlcNAc(b1-3)Gal(b1-4)Glc = target: GlcNAc(b1-3)Gal(b1-4)Glc
# Procedure, shortened: as §1
# [13] = target: GlcNAc(b1-3)Gal(b1-4)GlcNAc
# Procedure, shortened: as §1
# [14] = target: GlcNAc(b1-3)Gal(b1-4)GlcNAc(b1-2)Man(a1-3)[GlcNAc(b1-3)Gal(b1-4)GlcNAc(b1-2)Man(a1-6)]Man(b1-4)GlcNAc(b1-4)GlcNAc
# Procedure, shortened: as §1
# [15] = target: GlcNAc(b1-3)Gal(b1-4)GlcNAc(b1-2)Man(a1-3)[GlcNAc(b1-3)Gal(b1-4)GlcNAc(b1-2)Man(a1-6)]Man(b1-4)GlcNAc(b1-4)[Fuc(a1-6)]GlcNAc
# Procedure, shortened: as §1
# [16] = target: GlcNAc(b1-3)Gal(b1-4)GlcNAc(b1-2)[GlcNAc(b1-3)Gal(b1-4)GlcNAc(b1-6)]Man(a1-6)[GlcNAc(b1-3)Gal(b1-4)GlcNAc(b1-2)Man(a1-3)]Man(b1-4)GlcNAc(b1-4)GlcNAc
# Procedure, shortened: as §1
# [17] = target: GlcNAc(b1-3)Gal(b1-4)GlcNAc(b1-3)Gal(b1-4)GlcNAc
# Procedure, shortened: as §1
# [18] = target: GlcNAc(b1-3)Gal(b1-4)GlcNAc(b1-3)Gal(b1-4)GlcNAc(b1-2)Man(a1-3)[GlcNAc(b1-3)Gal(b1-4)GlcNAc(b1-3)Gal(b1-4)GlcNAc(b1-2)Man(a1-6)]Man(b1-4)GlcNAc(b1-4)GlcNAc
# Procedure, shortened: as §1
# [19] = target: GlcNAc(b1-3)Gal(b1-4)GlcNAc(b1-3)Gal(b1-4)GlcNAc(b1-2)Man(a1-3)[GlcNAc(b1-3)Gal(b1-4)GlcNAc(b1-3)Gal(b1-4)GlcNAc(b1-2)Man(a1-6)]Man(b1-4)GlcNAc(b1-4)[Fuc(a1-6)]GlcNAc
# Procedure, shortened: as §1
# [20] = target: GlcNAc(b1-3)Gal(b1-4)GlcNAc(b1-3)Gal(b1-4)GlcNAc(b1-2)[GlcNAc(b1-3)Gal(b1-4)GlcNAc(b1-3)Gal(b1-4)GlcNAc(b1-6)]Man(a1-6)[GlcNAc(b1-3)Gal(b1-4)GlcNAc(b1-3)Gal(b1-4)GlcNAc(b1-2)Man(a1-3)]Man(b1-4)GlcNAc(b1-4)[Fuc(a1-6)]GlcNAc
# Procedure, shortened: as §1
# [21] = target: GlcNAc(b1-3)Gal(b1-4)GlcNAc(b1-3)Gal(b1-4)GlcNAc(b1-3)Gal(b1-4)GlcNAc(b1-2)Man(a1-3)[GlcNAc(b1-3)Gal(b1-4)GlcNAc(b1-3)Gal(b1-4)GlcNAc(b1-3)Gal(b1-4)GlcNAc(b1-2)Man(a1-6)]Man(b1-4)GlcNAc(b1-4)GlcNAc
# Procedure, shortened: as §1
# [22] = target: GlcNAc(b1-3)Gal(b1-4)GlcNAc(b1-3)Gal(b1-4)GlcNAc(b1-3)Gal(b1-4)GlcNAc(b1-2)Man(a1-3)[GlcNAc(b1-3)Gal(b1-4)GlcNAc(b1-3)Gal(b1-4)GlcNAc(b1-3)Gal(b1-4)GlcNAc(b1-2)Man(a1-6)]Man(b1-4)GlcNAc(b1-4)[Fuc(a1-6)]GlcNAc
# Procedure, shortened: as §1
# [23] = target: GlcNAc(b1-3)Gal(b1-4)GlcNAc(b1-3)Gal(b1-4)GlcNAc(b1-3)Gal(b1-4)GlcNAc(b1-2)[GlcNAc(b1-3)Gal(b1-4)GlcNAc(b1-3)Gal(b1-4)GlcNAc(b1-3)Gal(b1-4)GlcNAc(b1-6)]Man(a1-6)[GlcNAc(b1-3)Gal(b1-4)GlcNAc(b1-3)Gal(b1-4)GlcNAc(b1-3)Gal(b1-4)GlcNAc(b1-2)Man(a1-3)]Man(b1-4)GlcNAc(b1-4)[Fuc(a1-6)]GlcNAc
# Procedure, shortened: as §1
# [24] = target: GlcNAc(b1-3)Gal(b1-4)GlcNAc(b1-3)Gal(b1-4)GlcNAc(b1-3)Gal(b1-4)GlcNAc(b1-3)Gal(b1-4)GlcNAc(b1-2)Man(a1-3)[GlcNAc(b1-3)Gal(b1-4)GlcNAc(b1-3)Gal(b1-4)GlcNAc(b1-3)Gal(b1-4)GlcNAc(b1-3)Gal(b1-4)GlcNAc(b1-2)Man(a1-6)]Man(b1-4)GlcNAc(b1-4)GlcNAc
# Procedure, shortened: as §1
# [25] = target: GlcNAc(b1-3)Gal(b1-4)GlcNAc(b1-3)Gal(b1-4)GlcNAc(b1-3)Gal(b1-4)GlcNAc(b1-3)Gal(b1-4)GlcNAc(b1-2)Man(a1-3)[GlcNAc(b1-3)Gal(b1-4)GlcNAc(b1-3)Gal(b1-4)GlcNAc(b1-3)Gal(b1-4)GlcNAc(b1-3)Gal(b1-4)GlcNAc(b1-2)Man(a1-6)]Man(b1-4)GlcNAc(b1-4)[Fuc(a1-6)]GlcNAc
# Procedure, shortened: as §1
# [26] = target: GlcNAc(b1-3)Gal(b1-4)GlcNAc(b1-3)Gal(b1-4)GlcNAc(b1-3)Gal(b1-4)GlcNAc(b1-3)Gal(b1-4)GlcNAc(b1-2)[GlcNAc(b1-3)Gal(b1-4)GlcNAc(b1-3)Gal(b1-4)GlcNAc(b1-3)Gal(b1-4)GlcNAc(b1-3)Gal(b1-4)GlcNAc(b1-6)]Man(a1-6)[GlcNAc(b1-3)Gal(b1-4)GlcNAc(b1-3)Gal(b1-4)GlcNAc(b1-3)Gal(b1-4)GlcNAc(b1-3)Gal(b1-4)GlcNAc(b1-2)Man(a1-3)]Man(b1-4)GlcNAc(b1-4)[Fuc(a1-6)]GlcNAc
# Procedure, shortened: as §1
# [27] = target: GlcNAc(b1-3)Gal(b1-4)GlcNAc(b1-3)Gal(b1-4)GlcNAc(b1-3)GalNAc
# Procedure, shortened: as §1
binder,measurement,setting,value
Pbx2 (Cryptococcus neoformans) (protein) AVSPLPSSTELVFYSQKRRRRRICSTATGSLSTPDPTRMTSDPYKRVGMRFSSVPRLLITFLSLLLLVSAAPPCVRFADYDSINQMFIDGGPGTKVLLCPNRLYRLSGPIIFTAADQEIATYGYPTGSERAVLRVEGRNTATAIQGDCRRCARVSVKNLVVDGNRKKLGRMRDFQLATGLVVLGGNEGQSIQNSWIKNPRGFTAIHIREGDKLQCSGARVEKNEIGPVGEEYDPEKDGDDPEMSPLGRPLADGVSIACRDSFIRDNTFRDNTDAAIVVYCSPGTLIHANHIFAQSLSAMAGILMVDSTPFNGDYTGTVVRSNIIDAVSRTIRVGIGIGPTVWSDDTETILTGGSVIGNGLKGRYMGYGIAAAGLKQWTIKDNWDEAKHEGRKSARCFDEPVNPDPIGLLYNRPTMEDCTVQSGFADHDFQYLVCIDGLYDKTNPPKHDPAPLAHDPSPTNAQEDNTVQQDGGDSKSKSIEQPREASDIEAEPSVEKMFSTGSEMMDDVLEHSHQRMHEVIDHLSRRIDILGAASAGKGSGDSKISEVLDPAMSSHLEKLQRKIEHLEFSLRSQIETAIQLRSAIQGWDQEMALVTDWEYDILLDVRHKLELSSYPHDQPLDPRLMRGQSYLNNEAVLVDDHSHPSLEGENLRAMSDRARLNANEEA,glycan array binding signal (z-score),[1],-0.115
same,glycan array binding signal (z-score),[2],-0.293
same,glycan array binding signal (z-score),[3],0.091
same,glycan array binding signal (z-score),[4],-0.242
same,glycan array binding signal (z-score),[5],-0.045
same,glycan array binding signal (z-score),[6],-0.524
same,glycan array binding signal (z-score),[7],0.057
same,glycan array binding signal (z-score),[8],-0.396
same,glycan array binding signal (z-score),[9],-0.473
same,glycan array binding signal (z-score),[10],-0.377
same,glycan array binding signal (z-score),[11],-0.434
same,glycan array binding signal (z-score),GlcNAc(b1-3)Fuc,-0.711
same,glycan array binding signal (z-score),GlcNAc(b1-3)Gal,-0.502
same,glycan array binding signal (z-score),[12],-0.436
same,glycan array binding signal (z-score),GlcNAc(b1-3)Gal(b1-4)Glc,-0.447
same,glycan array binding signal (z-score),[13],-0.435
same,glycan array binding signal (z-score),[14],-0.424
same,glycan array binding signal (z-score),[15],0.05
same,glycan array binding signal (z-score),[16],2.16
same,glycan array binding signal (z-score),[17],-0.336
same,glycan array binding signal (z-score),[18],3.17
same,glycan array binding signal (z-score),[19],-0.196
same,glycan array binding signal (z-score),[20],1.33
same,glycan array binding signal (z-score),[21],-0.049
same,glycan array binding signal (z-score),[22],-0.032
same,glycan array binding signal (z-score),[23],0.144
same,glycan array binding signal (z-score),[24],-0.241
same,glycan array binding signal (z-score),[25],-0.662
same,glycan array binding signal (z-score),[26],-0.071
same,glycan array binding signal (z-score),[27],-0.014

# Reference: the supplement of paper PMC8728848
